The results in this text go back to the RNAGym collection of RNA variant scans (doi:10.7554/elife.90254).

Read counts are not given, so values of variants with three or more changes are uncertain.

B1: LINE1-mini (parent)
chain: GGCAGAGCUCAACACAGCGUGGCAAAGUGGCUGUGGCUAGACUGCC

The variants in this data set derive from B1. As to the kind of experiment: self-cleavage, relative activity (ratio to wild type); higher = more cleavage; in vitro, sequencing; the parent is a self-cleaving ribozyme.
Consider AGCAGAGCUCAACACAGCGUGGCAAAGUGGCUGUGAGUACACAGCC, for which the self-cleavage was determined as 0.02.

CGCCGAGCUCAACACAGCGUGGCAAAGUGGCUGUGGCUAGACUGCA: the self-cleavage was 0.04.

As for AGCAGAGCCCAACACAGCGUGGCAAAGUGGCUGUGGCUAGAGUGCC, the self-cleavage worked out at 0.06.

For the variant CGCAGCUCUCAACACAGCGUGGAAAAGUGGCUGUGUCUCGACUGAC, the self-cleavage is 0.01.

Turning to CGCUGAGCUCAACACAGCUUGGCAAAGUGUCUGUGGCUAGACUGCC, the self-cleavage stood at 0.01.

Consider CGCAGGACUCAACACAGCGCGGCAAAGUGCCUGUGGCUAGACGGCC, for which the self-cleavage stood at 0.01.

With AGCAGAGCACAAAACAGCUUGGCAAAGUGGCUGUGGCUAAACUGCC, the self-cleavage was found to be 0.23.

Consider AGCAGAGCUCAACACAGCGAGGCAAAUUGGCUGUGGCUAGACUUCA, for which the self-cleavage turned out to be 0.02.

Turning to CGCAGUGCUCAACACAGCGUGGCAAAGUGACUGUGGCUAGACUGCU, the self-cleavage was found to be 0.06.

As for AGCAGAGCUCAACACAGCGUGGCAAAGUGGCUGUGAAUAGACUGCC, the self-cleavage worked out at 0.03.

AGCAGAGCUCAACACAGCGUGGCAAAGUGGCUGUGAUUAGACUGCC: the self-cleavage worked out at 0.1.

As to CGCCGAGCUCAACACAGCGUGGCAAAGUGGCUUUGGCUAGACUGCC, the self-cleavage worked out at 0.01.

Take CGCCGAGCUCAACACAGCGUGGCAGAGUGGCUGUGGCGAGACUGCC: the self-cleavage was found to be 0.01.

As for AGCAGAGCUCAACACAGCGUGGCAAAGCGGCUGUGGCUAUACUGCC, the self-cleavage stood at 0.1.

Regarding CGCAGGACUCAACACAGCGUGGCAAAGUCGCUCUGGCUAGACUGCC, the self-cleavage amounted to 0.01.

As to CGCAGUGCUCAACACAGCAAGGCACAGUGACUGUGGCUAGACUGCC, the self-cleavage was found to be 0.03.

Regarding CGCGGAGCUCAACACAGCGUGGCAAAAUGGCUGUGGCUCCACUGCC, the self-cleavage worked out at 0.02.

With CGCUGAGCUCAACACAGCGUGGCAAAGUGGCUGUGGUUAGACUGCC, the self-cleavage was 0.02.

As for CGCAGCGCUCAACAAAGCGUGGCAAAGUGGCUGUGGCUGGACUGCC, the self-cleavage stood at 0.04.

Consider AGCAGAGCUCAACACAGCGUGGCAAAGUGGCUGUGACUAUUCUGCC, for which the self-cleavage is 0.69.

For the variant AGCAGAGCUCAACACAGCGUGGCAAAGUGGCUUUGGCUAGUCUGCC, the self-cleavage turned out to be 0.12.

As to AGCAGAGCCCAACACAACGUGGCAAAGUGGCUGUGGCUAGACUGCC, the self-cleavage was determined as 0.06.

Consider AGCAGAGCUCAACACAGCGUGGCAAAGUGGCUAUCGCUAGACUGCC, for which the self-cleavage came out at 0.05.

Consider CGCAGCGCUCAAGACAGCGUGGCAAAGUGGGUGAGGCUAGACUGCC, for which the self-cleavage came out at 0.

Take CGCGGAGCUCAACACAGCGUGGCAAAGAGGCUGUGGCUAGACUGCC: the self-cleavage was found to be 0.1.

CGCAGUGCUCAACACAGCGUGACAAAGUGGCUGUGUCUAGACUGCC: the self-cleavage was determined as 0.03.

On to AGCAGAGCUCAACACAGCGUGGCAAAGUGGCUGUUGCUAGACUGCU, for which the self-cleavage is 0.34.

In the case of CGCAGUGCUCAACUCAGGGCGGCAAAGUGGCUGUGGCUAGACUGCC, the self-cleavage was 0.01.

In the case of AGCAGAGCACAACACAGCGCGGCAAAGUGGCUGUGGCUAGACUGCC, the self-cleavage is 0.18.

Turning to CGCAGUGCUAAACACAGCGUGGCAAAGUGGCUGUGGCUAGACUGCC, the self-cleavage was determined as 0.

As for CGCGAAGCUCAACACAGCGUGGCAAAGUGGCUGUGGCUAGACUGCC, the self-cleavage came to 0.03.

Turning to AGCAGAGCUCAACACAGCGUGGCAAAGUGGCUGUGACUAGACUGCU, the self-cleavage was 0.36.

As to CGCAGUGCUCAACACAGCGUGGCAAAGUGGCUGUUGCUAGACUGCC, the self-cleavage is 0.

For AGCAGAGCUCAACACAGCGUGGCAAAGUGGCUGUGGCUACACUGUC, the self-cleavage is 0.01.

For the variant CGCCGAGCUCAACAUAGAGUGGCAAGGUGGCUGUGUCCAGACUGCC, the self-cleavage was determined as 0.05.

AGCAGAGCUCAACACAGCGUGGCAAAGUGGCUUUGGCUAGACUACC: the self-cleavage was determined as 0.05.

Consider CGCAGCACUCAACACGGUGUGGCAAAGUGGCUGUAGCUAGACUGCU, for which the self-cleavage was determined as 0.01.

For CGCAGCGCUCAACACAGCGCGGCAAAGUGGCUUUGGCUAGACUGCC, the self-cleavage is 0.02.

On to CGCCGAGCGUAACACAGCGUGGCAAAGUGGCUGUGGGUAGACUGCC, for which the self-cleavage was determined as 0.01.

Consider AGCAGAGCCCAAAACAGCGUGGCAAAGCCGCUGUGGAUCGACUGCC, for which the self-cleavage was 0.03.

Regarding AGCAGAGCGCAACACACCGUGGCAAAGUGGCUGUGGCUAGACCGCC, the self-cleavage worked out at 0.

For the variant AGCAGAGCUCAACACAGCGUGGCAAAGUGGCUGUGUCUAGGCUGCC, the self-cleavage stood at 0.16.

For the variant CGCUGAGGACAACACAGCGUGGCAAAGUGGCAGUGGCUAGAGUGCC, the self-cleavage was 0.02.

Take CGCGGAGCGCAACACAGCGUGGCGAAGUGGCUGUGGCUAGACUGCC: the self-cleavage stood at 0.02.

For AGCAGAGCUCAACACAGCGUGGCAAAGAGGCUGUGGCUAGACUGUC, the self-cleavage amounted to 0.34.

On to AGCAGAGCUCAACACAGCGGGGCAAAAUUGCUGUGGCUAGACUGCC, for which the self-cleavage came to 0.9.

For AGCAGAGCUCAACACAGCGUGGCAAAGUGGCUGUAGCUAGACUACC, the self-cleavage was determined as 0.06.

Consider AGCAGAGCCGAACACAGCGUGGCAAAGUGGCUGUGGCUAGACUGGC, for which the self-cleavage came out at 0.05.

Take CGCAGGGCUCCACACAGGGUGGCAAGGUGGCUGUAGCUAGACUGCC: the self-cleavage came out at 0.

Consider AGCAGAGCUCAACACAGCGUGGCAAAGUGGCUCUGCCUAGACUACC, for which the self-cleavage stood at 0.07.

As for AGCAGAGCGCAACACAGCGUGGCCAAGUGGCUGUGGCGAGACUGCC, the self-cleavage worked out at 0.08.

As for AGCAGAGCUCAACACAGCGUGGCAAAGUGGCUCUGGCUAGUCUGCG, the self-cleavage was found to be 0.04.

As to CGCGGAGCUCAACACAGCGUGGCAAAGUGGCUGUGCCGAGACAGCC, the self-cleavage is 0.01.

As to AGCAGAGCCCAACGCAGCGUGGCAAAGUGGCUGUGGCUAGACUGCC, the self-cleavage came to 0.07.

Take CGCCGAGCUGAACACAGCGUGGCAAAGUGGCUGUGGUUAGACUGCC: the self-cleavage was found to be 0.01.

As to CGCCGAGCUCAACACAGCGUUGCAAAAUGGCAGUGGCUAGACUGCC, the self-cleavage was found to be 0.07.
